# In the supplement of paper PMC3334620:
# The full ranking holds about 33,000 sequences; the median of “E-score (-0.5 to 0.5)” is about -0.032, and the highest 2% start at about 0.36. The list shows a part of the results.
# Target: T1, Sko1 (UniProt Q02100)
# T1 sequence: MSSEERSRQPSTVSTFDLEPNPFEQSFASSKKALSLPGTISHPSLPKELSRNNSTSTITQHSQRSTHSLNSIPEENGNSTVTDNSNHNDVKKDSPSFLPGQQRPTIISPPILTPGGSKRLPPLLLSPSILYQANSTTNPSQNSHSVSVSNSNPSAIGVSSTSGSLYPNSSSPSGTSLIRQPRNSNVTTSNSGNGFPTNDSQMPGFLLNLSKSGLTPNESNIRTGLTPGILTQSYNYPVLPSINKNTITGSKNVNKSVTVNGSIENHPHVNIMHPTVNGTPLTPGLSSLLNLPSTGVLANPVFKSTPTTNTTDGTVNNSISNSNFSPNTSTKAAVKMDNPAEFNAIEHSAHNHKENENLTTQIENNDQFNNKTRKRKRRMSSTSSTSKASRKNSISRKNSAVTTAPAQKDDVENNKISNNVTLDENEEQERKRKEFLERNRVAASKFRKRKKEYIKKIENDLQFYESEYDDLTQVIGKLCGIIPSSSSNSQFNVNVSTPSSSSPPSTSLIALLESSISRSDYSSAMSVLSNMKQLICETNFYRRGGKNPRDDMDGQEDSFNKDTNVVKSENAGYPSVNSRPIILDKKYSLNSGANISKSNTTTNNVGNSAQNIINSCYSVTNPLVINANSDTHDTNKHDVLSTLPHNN
# Test: PBM E-score (8-mer binding enrichment) (E-score (-0.5 to 0.5)); higher = stronger / more preferred TF binding; most listed sequences are background and not binding sites
# Conditions: protein concentration: 200 nM; construct: GST-full length
# In short: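 Yeast transcription factors, full-length or as DNA-binding domains, were expressed with a GST tag using PURExpress in vitro transcription/translation. At about 100-200 nM they were applied to universal all-10-mer Agilent arrays, double-stranded by primer extension on fresh or once-stripped slides. Fluorescent anti-GST detected bound protein, and masliner normalised the scans. E-scores for ungapped eight-base words, pooled with reverse complements, came from the Universal PBM Analysis Suite.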
row,Sequence,PBM E-score
1,CGAACAGA,-0.0377
2,GCCAGGTA,-0.115
3,CCAGGCTC,-0.153
4,AAGATCAC,0.0381
5,GAGAGCCA,-0.118
6,CCGGGTTC,-0.297
7,TATCCGAA,0.00827
8,CGCGCTTA,0.165
9,CATTTACA,0.103
10,CTAGTTTA,0.0553
11,AGGACGAG,-0.153
12,ACTCATAT,0.0856
13,AAAGTGGA,-0.0436
14,AATTGTGT,0.108
15,GAGAGGCC,-0.335
16,GGTTGATA,-0.0764
17,ACTTGACG,0.331
18,CTTTGCGA,-0.108
19,AAGGCCTA,-0.229
20,ACCCTCTG,-0.155
21,CGTGTTAG,0.295
22,GAAAGGTC,-0.139

row,Sequence,PBM E-score
1,GCATGTTA,0.0316
2,ACGACGTA,0.446
3,ATACGGTG,0.0664
4,AACTACCT,0.029
5,CCGGTAAC,0.0117
6,GCGCAACA,0.175
7,ATCAACAA,0.18
8,ACGATGCC,-0.159
9,CTAAAGCC,-0.113
10,ATAAGTTG,0.039
11,AGGAAGTG,-0.18
12,GTACGTGA,0.416
13,ATGAAATG,-0.059
14,GGCTGAAC,-0.178
15,GCGTCTTA,-0.0429
16,CCGACACC,-0.299
17,CCCATTTC,-0.321
18,GTGCGCTA,-0.0664
19,AAATAGCT,-0.0235
20,CTGTTCAA,-0.0354
21,CACGCTTC,-0.293
22,CTATCATA,0.0725

row,Sequence,PBM E-score
1,AAACGACT,0.012
2,TATTTTGA,0.145
3,GCCATTTA,0.0064
4,CAGCATCA,0.096
5,ATGGGAAT,-0.071
6,GCATGCCA,-0.187
7,CAAAGGCA,-0.109
8,TCGTCCAA,-0.0467
9,ACTATACT,-0.0265
10,TTCCCCAA,-0.108
11,CAAGTTAA,0.0734
12,CGGTACCC,-0.307
13,CCCAGCAG,-0.182
14,AACTGGCA,-0.0966
15,CCGCATGC,-0.284
16,AACTCAAT,0.124
17,GCGAATAC,0.111
18,AACAATGG,0.00677
19,TAGACAAA,0.107
20,AATGTTCG,0.0246
21,CCAGGCCA,-0.271
22,CCGTCCCC,-0.327

row,Sequence,PBM E-score
1,ATCTCTAG,-0.0619
2,ATACTTTA,0.107
3,CTGCATAC,-0.0108
4,AGAGCAGG,-0.126
5,TATCGAGA,0.0604
6,ACAAGACT,-0.122
7,CCCAGGGG,-0.245
8,GGTAGCCA,-0.238
9,GGTTGCGA,-0.0606
10,CGGGGTTA,-0.0864
11,AATGTTGC,0.159
12,ATAGCAAT,0.188
13,AAGTTGCG,0.18
14,CCCGCTCC,-0.312
15,CAGGCACG,-0.0439
16,AGATTGGC,-0.0878
17,AAGGCCGC,-0.133
18,CTTGATTA,0.0169
19,ATAGAGTG,-0.0804
20,CTATATCA,0.0782
